From PubChem BioAssay AID1466 (National Center for Advancing Translational Sciences (NCATS), 2008)
Screen size: about 200,000 compounds; about 10 (0.005%) were called active. The shares of active, inactive and inconclusive entries below differ from those in the screen. The call rests on the fitted dose curve; in most records, active means well fitted inhibition curve with a large enough effect; inconclusive means small, poorly fitted or top-dose-only effect, or effect the other way, or another doubt; inactive means no such curve, though single readings can be large or run the other way. A potency beside an inconclusive call is a rough fit, not a confirmed value.

Biological target: Lysosomal alpha-glucosidase (Homo sapiens) (UniProt P10253)
Test: qHTS Assay for Inhibitors of Human alpha-Glucosidase as a Potential Chaperone Treatment of Pompe Disease;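 on activity change, negative = inhibition: plate controls were uninhibited enzyme wells for no effect and no-enzyme background for full effect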
Conditions: purified human GAA, 4-MU-alpha-glucoside fluorescence; activity change, negative = inhibition: at 76.9 µM (top of the series) unless noted
Summary of the method: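 Endpoint fluorogenic read: 20 min room-temperature reaction of 4 nM human alpha-glucosidase with 400 uM 4-methylumbelliferyl-alpha-D-pyranoside, pH 5.0, quenched with 1M NaOH/1M glycine pH 10. AC50 from Hill modeling.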
Potency means the concentration at half of the fitted maximal effect; tags describe the fitted curve by direction and shape.

Row | SMILES | Potency | activity change, negative = inhibition
1 | Cc1ccc(-c2cn3nc(C)c(C)nc3n2)cc1 | inconclusive: 31.6 µM [activator, partial curve] | 
2 | COc1ccccc1COC(=O)N/C=C/c1ccco1 | inactive | 
3 | COc1ccc(C(=O)Nc2cc(C(F)(F)F)ccc2-n2cnc3ccccc32)cc1 | inconclusive: 35.5 µM [inhibitor, single point] | 
4 | CC(=O)N1N=C(c2ccncc2)CC1c1ccccc1O (centres undefined) | inactive | 
5 | CCOc1cc(C2C3=C(CC(C)(C)CC3=O)OC3=C2C(=O)CC(C)(C)C3)cc([N+](=O)[O-])c1O | inconclusive: 10 µM [inhibitor, full curve] | 
6 | COC(=O)c1ccc(/C=N/Nc2nc(C)c(C)s2)cc1 | inconclusive: 12.6 µM [inhibitor, single point] | 
7 | COc1ccc(Nc2nc(C)cc(C)c2C#N)cc1 | inconclusive: 50.1 µM [activator, single point] | 
8 | CN(C)/C=N/c1nc2nccc(-c3cccc(Cl)c3)n2n1 | inconclusive: 50.1 µM [activator, single point] | 
9 | Cc1cc(OC(=O)c2ccccc2)c([N+](=O)[O-])c(=O)[nH]1 | inactive | 
10 | COc1ccc(Oc2c(O)c3ccccc3n(C)c2=O)cc1 | inconclusive: 12.6 µM [inhibitor, single point] | 
11 | Cc1cc2c(c(=O)n1CCc1ccccc1)C(C(C)C)C(C#N)=C(N)O2 (centres undefined) | inconclusive: 4.47 µM [inhibitor, full curve] | 
12 | CCCSc1ccc2nc(NC(=O)OC)[nH]c2c1 |  | inconclusive: 9.87% [activator] [at 15.4 µM]
13 | Cc1cc(=O)n2cccc(O)c2n1 | inconclusive: 25.1 µM [activator, partial curve] | 
14 | Cc1ccccc1NC(=O)COC(=O)c1cccnc1 |  | inconclusive: 17.4% [activator]
15 | O=C(O)COC(=O)C1C(c2ccccc2)C(C(=O)O)C1c1ccccc1 (centres undefined) | inconclusive: 3.16 µM [inhibitor, partial curve] | 
16 | O=S(=O)(CCc1nc2ccccc2s1)c1ccc2ccccc2c1 | inconclusive: 7.08 µM [inhibitor, full curve, poor fit] | 
17 | COc1ccc(C(=O)Oc2c(CN3CCOCC3)cc(Cl)c3cccnc23)cc1 | inactive | 
18 | Cc1ccc(N2NC(C)(c3cccs3)NC2=S)cc1 (centres undefined) |  | inconclusive: -20% [inhibitor]
19 | Cc1ccc(CNC(=O)C(NS(=O)(=O)c2ccc3nc(C)sc3c2)C(C)C)cc1 (centres undefined) | inconclusive: 0.794 µM [inhibitor, single point] | 
20 | COC(=O)[C@H](Cc1ccccc1)NC(=O)O[C@@H]1C(=O)c2cc(OC)ccc2O[C@H]1c1ccc(OC)c(Br)c1 | inconclusive: 50.1 µM [activator, single point] | 
21 | O=C(CCNS(=O)(=O)c1ccc(Br)s1)NC1CCCC1 | inconclusive: 6.31 µM [inhibitor, single point] | 
22 | COc1ccc(C2c3c(ncn(CCN4CCOCC4)c3=N)Oc3ccc4ccccc4c32)cc1OC (centres undefined) | inactive | 

Row | SMILES | Potency | activity change, negative = inhibition
23 | N#Cc1nc(-c2cccs2)oc1N1CCOCC1 | inconclusive: 6.31 µM [activator, partial curve] | 
24 | CCOCC(=O)Nc1c(C)n(C)n(-c2ccccc2)c1=O | inconclusive: 0.891 µM [inhibitor, full curve] | 
25 | Cc1ccc(S(=O)(=O)NC(=O)CSc2nc3ccccc3s2)cc1 | inconclusive: 0.794 µM [inhibitor, full curve] | 
26 | COc1cccc(C(=O)N2CCN(C3CCC(c4ccccc4)CC3)CC2)c1OC (centres undefined) | inconclusive: 0.178 µM [inhibitor, full curve, poor fit] | 
27 | CCOC(=O)C1=C(Nc2ccc(Cl)cc2)OCC1=O | inconclusive: 0.158 µM [inhibitor, full curve, poor fit] | 
28 | COc1cc(/C=C/C(=O)O)cc(S(=O)(=O)NCCCC(=O)O)c1OC | inactive | 
29 | COCCNC(=S)Nc1ccc2[nH]c(=O)[nH]c2c1 |  | inconclusive: 17.6% [activator]
30 | CCOC(=O)c1cnc2c(-c3ccc(F)cc3)cnn2c1C(F)(F)F | inconclusive: 31.6 µM [activator, partial curve] | 
31 | O=C(NCCc1ccccc1)C1CCN(S(=O)(=O)c2ccc(-n3cnnn3)cc2)CC1 | inconclusive: 20 µM [inhibitor, partial curve, poor fit] | 
32 | COc1ccc2[nH]c(=O)c(CNC3CCCCC3)cc2c1 | inconclusive: 17.8 µM [activator, partial curve] | 
33 | Clc1ccc(-c2ccn[nH]2)cc1 |  | inconclusive: 14.3% [activator]
34 | COc1ccc(C(=O)C2CCCN(Cc3cccn3-c3ccc(Cl)cn3)C2)c(OC)c1 (centres undefined) |  | inconclusive: 17.3% [activator]
35 | O=C(Nc1nnc(C(F)(F)F)s1)c1ccc(Br)s1 | inactive | 
36 | CCOC(=O)c1ccc(S(=O)(=O)N2CCN(C(=O)c3nn(C)c(=O)c4ccccc34)CC2)cc1 | inconclusive: 35.5 µM [inhibitor, single point] | 
37 | O=C(Nc1ccc(S(=O)(=O)Nc2ccc(F)cc2)cc1)c1ccc(CN2CCOCC2)cc1 |  | inconclusive: 16.7% [activator]
38 | COc1ccc2cc3cc(C(=O)NCCCN4CCOCC4)oc3nc2c1 | inconclusive: 35.5 µM [activator, partial curve] | 
39 | O=C(CCCN1C(=O)c2cccc3cccc(c23)C1=O)N1CCN(c2ccc(F)cc2)CC1 |  | inconclusive: 15.6% [activator]
40 | CCN(CC)c1ccc2ccc(=O)oc2c1 |  | inconclusive: 24.6% [activator]
41 | CCn1c2ccccc2c2cc(NC(=O)Cc3ccc(S(=O)(=O)N4CCOCC4)s3)ccc21 | inconclusive: 56.2 µM [inhibitor, single point] | 
42 | CCc1nnc(NC(=O)c2ccc(S(=O)(=O)N(CC(C)C)CC(C)C)cc2)o1 | inconclusive: 0.891 µM [inhibitor, full curve] | 
43 | O=C(O)/C=C/C(=O)Nc1ccccc1C(=O)OCC(=O)c1ccc2c(c1)OCCO2 | inconclusive: 31.6 µM [inhibitor, single point] | 
44 | O=C(NC(=S)N1CCN(c2ccccn2)CC1)c1ccco1 | inactive | 
